Assay results as given in the supplement of paper PMC9446081.
In all, about 39,000 compounds went through this assay and about 220 (0.56%) showed activity. The list shows a part of the results.

tested on: Escherichia coli K-12 BW25113; assay: relative growth (OD600 normalised to plate interquartile mean) (fraction); higher = less growth inhibition, active = 0.2 or less; conditions: 50 µM; LB; incubation time: overnight (16-24 h)
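Also: static incubation at 37 °C against the wild-type strain, values averaged over two biological replicates.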

**Q.** `Cc1ccc(S(=O)(=O)N(C)C[C@H]2OCCCC[C@@H](C)Oc3ccc(NC(=O)NC4CCCCC4)cc3C(=O)N([C@H](C)CO)C[C@H]2C)cc1` was tested. Which relative growth did it give?
**A.** The relative growth was inactive: 1.04.

**Q.** How did the relative growth turn out when `COc1ccccc1C#Cc1cnc2c(c1)C(=O)N([C@@H](C)CO)C[C@@H](C)[C@H](CN(C)C(=O)CC1CC1)O2` was run?
**A.** Its relative growth is inactive: 1.02.

**Q.** Which relative growth does the source give for `Cc1noc(C)c1NC(=O)Nc1ccc2c(c1)C(=O)N([C@@H](C)CO)C[C@H](C)[C@H](CN(C)Cc1ccc(C(F)(F)F)cc1)OCCCC[C@H](C)O2` here?
**A.** The relative growth was inactive: 1.02.

**Q.** `C[C@H]1CN([C@@H](C)CO)C(=O)c2cc(-c3ccncc3)cnc2O[C@@H]1CN(C)S(=O)(=O)c1ccccc1` was tested. Which relative growth did it give?
**A.** Its relative growth is inactive: 1.03.

**Q.** `C=CCNC(=O)[C@H]1[C@@H]2C(=O)O[C@@H](c3ccccc3)[C@@H](c3ccccc3)N2[C@@H](c2ccc(O)cc2)[C@]12C(=O)Nc1ccc(C#Cc3ccc(OC)cc3)cc12` was tested. Which relative growth did it give?
**A.** Its relative growth is inactive: 1.04.

**Q.** How did the relative growth turn out when `CN1CCN(C(=O)C[C@H]2CC[C@@H]3[C@H](COc4ccc(NC(=O)C5CCCCC5)cc4C(=O)N3C)O2)CC1` was run?
**A.** The relative growth was inactive: 1.

**Q.** `C[C@@H]1CCCCO[C@H](CN(C)C(=O)Nc2ccc(C(F)(F)F)cc2)[C@@H](C)CN([C@H](C)CO)C(=O)c2cc(NC(=O)NC3CCCCC3)ccc2O1` was tested. Which relative growth did it give?
**A.** The relative growth was inactive: 1.02.

**Q.** Which relative growth does the source give for `CO[C@H]1CN(C)C(=O)c2cc(NS(=O)(=O)c3cn(C)cn3)ccc2OC[C@H](C)N(CCC(F)(F)F)C[C@H]1C` here?
**A.** The relative growth was inactive: 0.973.

**Q.** `Cc1ccc(S(=O)(=O)Nc2ccc3c(c2)CC(=O)N([C@@H](C)CO)C[C@H](C)[C@@H](CN(C)Cc2ccc(-c4ccccc4)cc2)O3)cc1` was tested. Which relative growth did it give?
**A.** The relative growth was inactive: 0.977.

**Q.** `C[C@@H]1CCCCO[C@H](CN(C)C(=O)CCCN(C)C)[C@H](C)CN([C@H](C)CO)C(=O)c2cc(NC(=O)Nc3cccc4ccccc34)ccc2O1` was tested. Which relative growth did it give?
**A.** Its relative growth is inactive: 1.01.

**Q.** With `C[C@@H]1CN([C@H](C)CO)C(=O)Cc2cc(NS(=O)(=O)c3cccs3)ccc2O[C@@H]1CN(C)S(=O)(=O)c1cccs1` as the compound, how does the relative growth read?
**A.** The relative growth was inactive: 1.01.

**Q.** `COc1ccc2c3c(n(c2c1)C)[C@H](CO)N(C[C@]13CN(C1)C(=O)c1ccccn1)S(=O)(=O)c1ccc(cc1)C` was tested. Which relative growth did it give?
**A.** The relative growth was inactive: 1.03.

**Q.** With `C[C@@H]1CN([C@@H](C)CO)C(=O)Cc2cc(NC(=O)NC3CCCCC3)ccc2O[C@H]1CN(C)S(C)(=O)=O` as the compound, how does the relative growth read?
**A.** The relative growth was inactive: 1.01.

**Q.** With `C[C@@H]1CNS(=O)(=O)CO1` as the compound, how does the relative growth read?
**A.** Its relative growth is inactive: 0.938.

**Q.** For `C[C@H]1CN([C@@H](C)CO)C(=O)c2cc(NC(=O)Nc3ccc(F)cc3)ccc2O[C@H]1CN(C)C(=O)Nc1ccc(C(F)(F)F)cc1`, which relative growth is on record?
**A.** Its relative growth is inactive: 0.971.

**Q.** How did the relative growth turn out when `C[C@@H]1CN([C@@H](C)CO)C(=O)c2cc(NS(=O)(=O)c3ccc(F)cc3)ccc2O[C@@H](C)CCCCO[C@H]1CN(C)Cc1ccc(C(F)(F)F)cc1` was run?
**A.** Its relative growth is inactive: 0.982.

**Q.** For `C[C@H](CO)N1C[C@H](C)[C@H](CN(C)S(C)(=O)=O)OCCCC[C@H](C)Oc2ccc(NS(=O)(=O)c3ccc(F)cc3)cc2C1=O`, which relative growth is on record?
**A.** Its relative growth is inactive: 0.992.

**Q.** How did the relative growth turn out when `CC(=O)N1[C@@H](CO)[C@@H](c2ccccc2)C12CN(C(=O)CN1CCOCC1)C2` was run?
**A.** The relative growth was inactive: 1.

**Q.** Which relative growth does the source give for `CC(=O)[C@]12O[C@@]3(COC[C@H](c4ccccc4)N3C1=O)[C@H]1C(=O)N(C)C(=O)[C@H]12` here?
**A.** The relative growth was inactive: 1.01.

**Q.** `C[C@H]1CN([C@@H](C)CO)C(=O)c2cc(C#Cc3ccccn3)cnc2O[C@@H]1CN(C)C(=O)c1cnccn1` was tested. Which relative growth did it give?
**A.** The relative growth was inactive: 0.974.

**Q.** Which relative growth does the source give for `C[C@H](CO)N1C[C@H](C)[C@@H](CN(C)C(=O)Nc2ccccc2)OCCCC[C@H](C)Oc2ccc(NC(=O)Nc3ccc(C(F)(F)F)cc3)cc2C1=O` here?
**A.** The relative growth was inactive: 0.941.

**Q.** With `C[C@H](CO)N1C[C@H](C)[C@@H](CN(C)Cc2ccc3c(c2)OCO3)OCCCC[C@H](C)Oc2ccc(NC(=O)C3CCCCC3)cc2C1=O` as the compound, how does the relative growth read?
**A.** Its relative growth is inactive: 0.995.

**Q.** With `O=C(C[C@H]1CC[C@H]2[C@@H](COC[C@@H](O)CN2C(=O)c2cnccn2)O1)NCc1ccc(Oc2ccccc2)cc1` as the compound, how does the relative growth read?
**A.** The relative growth was inactive: 0.98.

**Q.** For `C[C@@H]1CN([C@H](C)CO)C(=O)c2cc(NC(=O)CCC(F)(F)F)ccc2O[C@@H](C)CCCCO[C@@H]1CN(C)S(=O)(=O)c1cccs1`, which relative growth is on record?
**A.** The relative growth was inactive: 1.03.

**Q.** Which relative growth does the source give for `C=CCOC(=O)[C@@H]1[C@H]2C(=O)O[C@H](c3ccccc3)[C@H](c3ccccc3)N2[C@H](c2ccc(OCCOC(=O)[C@H]3C[C@H]4C(=O)N5CCC[C@H]5C(=O)N4[C@H]3c3ccc(O)cc3)cc2)[C@@]12C(=O)Nc1ccccc12` here?
**A.** Its relative growth is inactive: 1.01.

**Q.** How did the relative growth turn out when `C[C@@H]1CN([C@@H](C)CO)C(=O)c2c(c3ccccc3n2C)-c2ccccc2CO[C@@H]1CN(C)Cc1ccc(O)cc1` was run?
**A.** Its relative growth is inactive: 1.01.

**Q.** Which relative growth does the source give for `Cc1ccc(S(=O)(=O)Nc2ccc3c(c2)CC(=O)N([C@H](C)CO)C[C@H](C)[C@@H](CN(C)Cc2ccncc2)O3)cc1` here?
**A.** Its relative growth is inactive: 1.01.

**Q.** With `CC[C@@H](O)C[C@H]1CC[C@H]([C@@H](C)C(=O)O[C@@H](C)C[C@H]2CC[C@H]([C@@H](C)C(=O)O[C@@H](C)C[C@H]3CC[C@H]([C@@H](C)C(=O)O[C@@H](C)C[C@H]4CC[C@H]([C@@H](C)C(=O)O)O4)O3)O2)O1` as the compound, how does the relative growth read?
**A.** Its relative growth is inactive: 1.06.

**Q.** For `C[C@H]1CCCCO[C@H](CN(C)C(=O)Nc2cccc3ccccc23)[C@@H](C)CN([C@@H](C)CO)C(=O)c2cc(NC(=O)Cc3ccccc3)ccc2O1`, which relative growth is on record?
**A.** Its relative growth is inactive: 1.01.

**Q.** `C[C@@H]1CN([C@H](C)CO)C(=O)c2cc(NS(=O)(=O)c3cccs3)ccc2O[C@@H](C)CCCCO[C@@H]1CN(C)C(=O)Cc1ccccc1` was tested. Which relative growth did it give?
**A.** The relative growth was inactive: 1.02.

**Q.** For `COc1ccc(NC(=O)N(C)C[C@@H]2Oc3ccc(NS(=O)(=O)c4cn(C)cn4)cc3CC(=O)N([C@H](C)CO)C[C@H]2C)cc1`, which relative growth is on record?
**A.** The relative growth was inactive: 0.998.

**Q.** With `C[C@@H]1CN([C@@H](C)CO)C(=O)c2cccc(NS(=O)(=O)c3cn(C)cn3)c2O[C@H]1CN(C)C(=O)Nc1ccc2c(c1)OCO2` as the compound, how does the relative growth read?
**A.** Its relative growth is inactive: 1.02.

**Q.** How did the relative growth turn out when `COCC#Cc1ccc([C@H]2[C@@H](CO)N3C(=O)CN(C(=O)c4cccnc4)C[C@@H]23)cc1` was run?
**A.** Its relative growth is inactive: 0.993.

**Q.** `CCCN(C)C[C@@H]1Oc2cc(C#Cc3cccc(OC)c3)ccc2S(=O)(=O)N([C@H](C)CO)C[C@@H]1C` was tested. Which relative growth did it give?
**A.** The relative growth was inactive: 0.99.
